Reference: the supplement of paper PMC10441789
This is one part of the list. Antibody binding of pooled human sera (four to six donors per pool; dilution not stated) to peptides of the Trypanosoma cruzi antigen TSSA on microarrays. Quantile-normalised fluorescence in arbitrary units, mean of duplicate arrays; higher = more binding. No active / inactive call. The uninfected pools are read here as the healthy donors of the same country. The strongest signals lie near the top of the scale (about 60,000).

Experiments:
Assay in all cases: antibody binding signal (normalised fluorescence) (arbitrary fluorescence units); higher = stronger serum antibody binding to peptide
[1] = test system: pooled sera of chronic Chagas disease patients, Bolivia
Procedure: (§1)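 Microarray of 15-residue peptides over residues 30-55 of Trypanosoma cruzi TSSAII, each with 1 to 10 substitutions at naturally variable positions, probed with one serum pool per country.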

[2] = test system: pooled sera of chronic Chagas disease patients, Brazil
Procedure: as §1

[3] = test system: pooled sera of chronic Chagas disease patients, Colombia
Procedure: as §1

[4] = test system: pooled sera of chronic Chagas disease patients, Mexico
Procedure: as §1

[5] = test system: pooled sera of chronic Chagas disease patients, USA
Procedure: as §1

[6] = test system: pooled sera of uninfected people, Argentina
Procedure: as §1

[7] = test system: pooled sera of uninfected people, Bolivia
Procedure: as §1

[8] = test system: pooled sera of uninfected people, Brazil
Procedure: as §1

[9] = test system: pooled sera of uninfected people, Colombia
Procedure: as §1

[10] = test system: pooled sera of uninfected people, Mexico
Procedure: as §1

[11] = test system: pooled sera of uninfected people, USA
Procedure: as §1

Sequence | antibody binding signal [1] | antibody binding signal [2] | antibody binding signal [3] | antibody binding signal [4] | antibody binding signal [5] | antibody binding signal [6] | antibody binding signal [7] | antibody binding signal [8] | antibody binding signal [9] | antibody binding signal [10] | antibody binding signal [11]
GTDNKAATGETPSQP | 6060 | 43000 | 204 | 207 | 13100 | 115 | 630 | 1600 | 135 | 157 | 123
TEKKPAAGGTPSPSG | 162 | 479 | 7230 | 564 | 1890 | 140 | 295 | 2380 | 252 | 483 | 1590
ENKPATGETPSPPGA | 34700 | 34600 | 270 | 376 | 25200 | 322 | 483 | 227 | 128 | 1550 | 550
GTENKAAAGETPSQS | 1780 | 15500 | 5140 | 7330 | 4410 | 119 | 468 | 142 | 234 | 125 | 124
SGTENKAAAGGAPSP | 6930 | 11200 | 3870 | 703 | 2910 | 316 | 433 | 169 | 333 | 159 | 223
TENKAATGEAPSPSG | 36900 | 32700 | 199 | 209 | 24500 | 141 | 197 | 117 | 113 | 91.8 | 234
KDNKTATGETPSQSG | 478 | 4670 | 2100 | 276 | 6940 | 516 | 285 | 285 | 334 | 179 | 177
GKDKKPATGGAPSPP | 729 | 318 | 990 | 1030 | 1700 | 273 | 586 | 90 | 112 | 86.2 | 107
GTDKKPAAGEAPSPS | 1010 | 12700 | 8160 | 585 | 15500 | 150 | 292 | 126 | 138 | 632 | 126
GKDNKPATGETPSQS | 26100 | 37000 | 2500 | 3700 | 26100 | 576 | 829 | 250 | 304 | 1740 | 136
GKENKAAAGETPSPP | 521 | 14000 | 8060 | 6940 | 16100 | 339 | 175 | 88.1 | 142 | 123 | 375
SGTEKKTAAGGTPSQ | 238 | 959 | 16300 | 1110 | 2550 | 189 | 412 | 881 | 224 | 613 | 218
GKDNKAATGEAPSQS | 32100 | 34300 | 4130 | 4210 | 26500 | 304 | 301 | 116 | 269 | 103 | 105
PPSGTDNKAAAGEAP | 33300 | 45500 | 1060 | 609 | 12400 | 598 | 714 | 1210 | 207 | 207 | 268
KDKKAATGETPSPSG | 217 | 3250 | 134 | 158 | 6820 | 335 | 95.2 | 79.2 | 192 | 86.5 | 811
KDKKTAAGGAPSQSG | 215 | 267 | 2520 | 308 | 226 | 136 | 94.2 | 131 | 128 | 111 | 130
KEKKAATGGAPSPSG | 230 | 192 | 631 | 385 | 518 | 206 | 168 | 94.5 | 280 | 80 | 82.7
SGTDKKPATGGAPSQ | 804 | 28800 | 11300 | 3130 | 2810 | 395 | 1050 | 163 | 396 | 1760 | 264

Sequence | antibody binding signal [1] | antibody binding signal [2] | antibody binding signal [3] | antibody binding signal [4] | antibody binding signal [5] | antibody binding signal [6] | antibody binding signal [7] | antibody binding signal [8] | antibody binding signal [9] | antibody binding signal [10] | antibody binding signal [11]
KTAAGETPSPSGASS | 186 | 428 | 190 | 3350 | 1120 | 180 | 226 | 170 | 141 | 169 | 494
NKAAAGGTPSQSGAS | 249 | 2120 | 3650 | 405 | 1230 | 753 | 867 | 1770 | 368 | 637 | 1120
GTDKKAATGGTPSPS | 338 | 339 | 2340 | 706 | 974 | 209 | 170 | 610 | 779 | 155 | 121
GTENKPAAGEAPSPS | 5030 | 25900 | 568 | 1630 | 14300 | 326 | 1440 | 243 | 121 | 125 | 124
KDKKTATGEAPSPSG | 6990 | 4040 | 644 | 189 | 13200 | 157 | 78.2 | 98.8 | 162 | 146 | 113
TSSTPPSGKDKKPAA | 1030 | 2750 | 251 | 51000 | 774 | 461 | 203 | 106 | 203 | 103 | 145
GTEKKAAAGGTPSPS | 208 | 279 | 4760 | 555 | 1900 | 114 | 328 | 1350 | 201 | 83.5 | 131
KKTAAGEAPSQPGAS | 5420 | 27900 | 268 | 260 | 4060 | 341 | 269 | 88.7 | 569 | 82.6 | 257
PPSGTENKAAAGEAP | 45800 | 48900 | 373 | 1420 | 16200 | 1770 | 430 | 263 | 540 | 246 | 666
PSGTENKAAAGEAPS | 28400 | 43300 | 2490 | 2560 | 17200 | 1170 | 558 | 263 | 369 | 332 | 343
ENKPAAGGTPSPSGA | 3440 | 983 | 1620 | 439 | 439 | 298 | 681 | 1020 | 574 | 179 | 246
KEKKAATGGTPSQPG | 294 | 222 | 488 | 386 | 581 | 281 | 98.8 | 201 | 342 | 165 | 110
KDNKAATGGAPSQSG | 264 | 769 | 293 | 365 | 714 | 222 | 1010 | 139 | 123 | 91.6 | 85.3
SGKEKKPAAGEAPSP | 1120 | 8870 | 4990 | 9750 | 14400 | 242 | 257 | 107 | 126 | 73.9 | 280
GKDKKTAAGEAPSPS | 199 | 289 | 692 | 722 | 3540 | 172 | 84.6 | 98.5 | 272 | 74.6 | 77.8
TSSTPPSGKENKPAT | 43200 | 26800 | 1470 | 11800 | 12900 | 4660 | 2270 | 331 | 790 | 323 | 691
SGTEKKPAAGGTPSP | 278 | 4360 | 8500 | 2650 | 2260 | 161 | 1020 | 1720 | 243 | 364 | 1520
